From PubChem BioAssay AID1159614 (National Center for Advancing Translational Sciences (NCATS), 2016) come the findings set out here.

Screen size: about 45,000 compounds; about 65 (0.1%) were called active. The call rests on the fitted dose curve; in most records, active means well fitted activation curve with a large enough effect; inconclusive means small, poorly fitted or top-dose-only effect; inactive means no such curve, though single readings can be large or run the other way. This is one part of the list.

This assay addresses Galactocerebrosidase (Homo sapiens) (UniProt P54803). Nature of the assay: A Novel Cell-Based Assay to Identify Small Molecules for B -Galactocerebrosidase. Further: 0% is about no effect; nearly all actives have a fitted effect of over 65% in size. The following applies: 145M-Twi-hGALC-G270D cells (Twitcher mouse brain line with human GALC G270D), HMU-beta-Gal fluorescence, 48 h; series mostly up to 57.5 µM; activation: at the top concentration. Put shortly: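 Live 145M-Twi cells (Twitcher mouse brain-derived, GALC-null) stably expressing human GALC-G270D, with a wild-type GALC line, were compound-treated. Residual GALC activity was then read as fluorescence from 0.1 mM final HMU-β-gal at pH 5.2; higher signal means activation.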
Chain of UniProt P54803 (P54803 whole entry, looked up): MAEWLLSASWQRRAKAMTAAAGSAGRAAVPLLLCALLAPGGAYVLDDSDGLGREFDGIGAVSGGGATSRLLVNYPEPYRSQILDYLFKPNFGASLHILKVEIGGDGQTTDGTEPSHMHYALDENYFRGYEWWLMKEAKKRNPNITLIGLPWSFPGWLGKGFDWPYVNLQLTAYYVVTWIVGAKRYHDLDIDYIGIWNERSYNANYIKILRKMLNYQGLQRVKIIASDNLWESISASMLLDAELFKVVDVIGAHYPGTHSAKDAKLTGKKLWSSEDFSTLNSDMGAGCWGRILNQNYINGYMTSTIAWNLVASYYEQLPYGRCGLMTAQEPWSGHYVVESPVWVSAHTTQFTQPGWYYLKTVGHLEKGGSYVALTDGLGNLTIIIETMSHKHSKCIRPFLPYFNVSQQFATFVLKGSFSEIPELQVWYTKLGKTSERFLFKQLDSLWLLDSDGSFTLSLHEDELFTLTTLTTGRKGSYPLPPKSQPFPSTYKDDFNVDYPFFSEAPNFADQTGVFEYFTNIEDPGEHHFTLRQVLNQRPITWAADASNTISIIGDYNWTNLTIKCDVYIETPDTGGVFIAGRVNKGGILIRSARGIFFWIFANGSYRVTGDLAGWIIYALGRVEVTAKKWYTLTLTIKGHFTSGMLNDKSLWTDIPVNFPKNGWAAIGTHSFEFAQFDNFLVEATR
Turning to `Cc1ccccc1-c1noc(CSc2nc3ccccc3[nH]2)n1`, the “activation” value was inactive: -12%. To `COCCCn1c(SCc2cccc(Cl)c2)nc2c(sc3ccccc32)c1=O` belongs inactive: 2.2%. The figure for `CCOC(=O)C1CCCN(C(=O)c2ccc3c(c2)sc2nc(-c4cccc(OC)c4)cn23)C1` (configuration not stated) is inactive: -16.1%. To `CCOCCc1nn2c(=O)cc(COC(=O)c3ccccc3OC)nc2s1` belongs inactive: -3.26%.

As for `COc1ccc(CCCc2nnc(SCC(=O)Nc3cccc(F)c3C)o2)cc1`, the “activation” value was inactive: 2.06%. To `CCn1c(C)c(C)c2cc(C(=O)NCC(C)c3ccccc3)ccc21` (configuration not stated) belongs inactive: -21.1%.

On to `COc1ccc2c(c1)c1c(c(=O)n(Cc3ccccc3)c(=O)n1CC(=O)Nc1ccccc1OC)n2C`, for which the “activation” value is inactive: -6.78%. To `CCOc1ccc(Nc2nc(-c3cccc(Cl)c3)c3c(n2)-c2ccccc2OC3)cc1` belongs inactive: 0.66%; to `COc1ccc(N(CC(=O)Nc2cccc(Cl)c2)S(=O)(=O)c2c(C)[nH]c(=O)[nH]c2=O)cc1`, inactive: 2.36%.

As to `CCOCCc1nnc(NC(=O)C(=O)c2cc(C)n(-c3ccc(C)cc3C)c2C)s1`, the “activation” value is inactive: -8.81%. The figure for `O=C(Nc1nc2c(F)cc(F)cc2s1)c1ccc(S(=O)(=O)N2CCc3ccccc32)cc1` is inactive: -33.9%. `COc1ccc(N2CCN(CCCNC(=O)C3COc4ccccc4C3)CC2)cc1` (configuration not stated): the “activation” value is inactive: -36.3%. To `O=C(c1ccc2c(Cl)c3c(nc2c1)CCCC3)N1CCN(c2ccc(Cl)cc2)CC1` belongs inactive: -7.7%. As to `C[C@@H]1CCC[C@H](C)N1`, the “activation” value is inactive: -10.4%. The figure for `CCOc1ccc(-n2c(=O)c3c4c(sc3n(CC(=O)NC(C)CC)c2=O)CCCCC4)cc1` (configuration not stated) is inactive: 1.27%; for `Oc1cccc(O)c1` it is inactive: -9.3%.

Take `CCN1C(C(=O)c2ccccc2)=C(OC(=O)COc2ccc(C)cc2)c2ccccc2S1(=O)=O`: the “activation” value is inactive: 0.0233%. To `C[C@@H](O[C@H]1OCCN(Cc2n[nH]c(=O)[nH]2)[C@H]1c1ccc(F)cc1)c1cc(C(F)(F)F)cc(C(F)(F)F)c1` belongs inactive: -10.1%; to `O=C(Nc1ccc(F)cc1)Nc1csc2c1CCCC2`, inactive: -11.6%; to `Cc1ccc(CNC(=O)CSc2nc3c(sc4ccccc43)c(=O)n2CCCC(=O)NCCO)cc1`, inactive: -18.1%. To `O=C(Cc1ccc(-c2ccccc2)cc1)NCCS(=O)(=O)N1CCN(c2ccc(F)cc2)CC1` belongs inactive: -13.9%; to `Cn1ncc2c(N3CCN(c4ccc(F)cc4)CC3)ncnc21`, inactive: -0.775%; to `COc1cc(-c2nc3sccn3c2Nc2c(C)cccc2C)ccc1O`, inactive: -13.4%.

`Cc1cc(O)cc(C)c1Cl`: the “activation” value is inactive: -17.8%. To `CCOc1ccc(CCn2c3c(c(=O)[nH]c2=O)C(NC(=O)c2cccc(F)c2)(C(F)(F)F)C(=O)N3)cc1OCC` (configuration not stated) belongs inactive: -8.71%.

On to `Cc1c(CCNC(=O)c2c(F)cccc2F)sc2nc(-c3ccc(F)cc3)nn12`, for which the “activation” value was inactive: -17.8%. The figure for `CC(=O)N1CCCC1c1nc2ccccc2n1Cc1ccccc1Cl` (configuration not stated) is inactive: 2.91%; for `O=C1Cc2cc(S(=O)(=O)N3CCN(c4cccc(Cl)c4)CC3)ccc2N1` it is inactive: -5%.

Turning to `CCn1c(C(=O)NCCc2ccc(S(N)(=O)=O)cc2)cc2sc(Cl)cc21`, the “activation” value was inactive: -7.65%. To `CC(=O)N1CCCc2ccc(NS(=O)(=O)c3cccc(Cl)c3)cc21` belongs inactive: -8.93%; to `CCCCN(CCCC)CC(O)c1cc(Cl)cc2c1-c1ccc(Cl)cc1/C2=C/c1ccc(Cl)cc1` (configuration not stated), inactive: -13.2%. Turning to `COc1cccc(CSc2nc3ccncc3n2CC(=O)Nc2ccc(OC)c(OC)c2OC)c1`, the “activation” value is inactive: -14.5%. To `CCOC(=O)c1cnc2c(ccc3ccccc32)c1Nc1ccc(C(C)=O)cc1` belongs inactive: -6.71%; to `Cc1cccc(C)c1-n1ncc(C(=O)NCCCN2CCC(C)CC2)c1C1CCN(C(=O)OC(C)(C)C)CC1`, inactive: 20.9%.

For `Cc1cc(Nc2ccc(Br)cc2)nc(C)n1`, the “activation” value is inactive: -5.79%. As for `Cc1cccc(OCc2nc(CC(=O)Nc3ccc(Cl)cc3)cs2)c1`, the “activation” value is inactive: -10.2%. For `CCC1CN(C(=O)N2CCC(C(=O)NCCc3ccc(OC)cc3OC)CC2)c2cc(C)ccc2O1` (configuration not stated), the “activation” value is inactive: -27.5%.

Regarding `Cc1cc(C)nc(-n2nc(C)c3c2N(Cc2ccccc2F)C(=O)CC3c2ccc(Cl)cc2)n1` (configuration not stated), the “activation” value was inactive: -10.2%. The figure for `COc1cccc(NC(=O)CCN2C(=O)c3ccccc3Sc3ncccc32)c1` is inactive: 4.19%. To `CCOC(=O)c1sc2ccccc2c1S(=O)(=O)NCc1ccccc1OC` belongs inactive: -5.8%; to `CCc1ccccc1NC(=O)C1CCN(S(=O)(=O)c2cn(C)cn2)CC1`, inactive: -8.26%; to `O=S(=O)(c1ccc(Cl)cc1)c1nc(-c2cccs2)oc1N1CCCCC1`, inactive: -20.5%. To `CCc1cc2c(cc3c(=O)n(CC(=O)NC(C)c4ccccc4)ncn32)s1` (configuration not stated) belongs inactive: -1.37%; to `COc1ccccc1CNC(=O)Cc1csc2nc(-c3ccc(F)cc3)cn12`, inactive: -15.1%. Turning to `Cc1cc2c(s1)Nc1ccccc1N=C2N1CCN(C)CC1`, the “activation” value is inactive: -7.92%.

For the compound `Cc1ccccc1C(=O)Nc1cc(C)c(O)c(-c2nc3ccccc3o2)c1`, the “activation” value is inactive: -18.5%. On to `CCC1CN(C(=O)Nc2ccccc2F)c2cc(C)ccc2O1` (configuration not stated), for which the “activation” value was inactive: -11%. To `CCOc1ccc(-c2nc(Cn3c(=O)cc(C)c4c(C)nn(-c5ccccc5)c43)c(C)o2)cc1` belongs inactive: 4.01%; to `CCCCCCn1nnc2sc(-c3ccccc3)cc2c1=O`, inactive: -15.4%; to `CC1CCN(CC2CCN(C(=O)NCc3ccccc3)CC2)CC1`, inactive: -7.73%.

`COc1ccc(CNC(=O)CCNS(=O)(=O)c2ccc3c(c2)oc(=O)n3C)cc1`: the “activation” value was inactive: -26.3%.

For `COc1ccc(C2CC(=O)c3cc(-c4nc(-c5cccc([N+](=O)[O-])c5)cs4)c(=O)n(-c4ccccc4)c3C2)cc1` (configuration not stated), the “activation” value is inactive: -4.38%. Consider `CCn1cc(C(=O)N(C)Cc2ccccc2)c(=O)c2cc(S(=O)(=O)N3CCc4ccccc4C3)ccc21`, for which the “activation” value is inactive: -8.3%. The figure for `CCN1c2ccccc2-c2nc(SCC(=O)Nc3cccc(C)c3C)ncc2S1(=O)=O` is inactive: -14.5%; for `COc1cc(C)ccc1OCCSc1nc2ccc(NC(=O)c3ccco3)cc2s1` it is inactive: -39.1%.

On to `CCc1ccc(NC(=O)CSc2ccnc(=O)[nH]2)cc1`, for which the “activation” value is inactive: -19.3%.

With `Cc1nn(C)c(C)c1S(=O)(=O)N(CC(=O)NCCc1ccccc1)c1ccc(C(C)C)cc1`, the “activation” value is inactive: -11.1%. The figure for `O=C(NCCc1ccccc1)c1ccc2c(c1)N(Cc1ccc(Cl)cc1)C(=O)CS2` is inactive: -17.6%; for `O=C(CSCc1ccc(F)cc1)N1CCN(c2ccccc2F)CC1` it is inactive: -1.58%.

As to `Cc1cc2c(cc1S(=O)(=O)NCc1ccc(F)cc1)n(C)c(=O)c(=O)n2C`, the “activation” value is inactive: -4.27%. To `COc1ccc(NC(=O)c2ccco2)cc1NC(=O)COc1ccc(C)c(C)c1` belongs inactive: -1.02%. To `Cc1cccc(N2C(=O)CC(c3ccc(F)cc3)C3=C2COC3=O)c1` (configuration not stated) belongs inactive: -3.27%. With `CCCCNC(=O)c1nn(C)c2c1CSc1ccccc1-2`, the “activation” value is inactive: -6.41%. The figure for `Cc1ccc(C(=O)c2cn(Cc3cccc(Cl)c3)c3nc(C)ccc3c2=O)cc1` is inactive: -11.2%; for `Cc1cn2c(=O)cc(COC(=O)c3ccc(NC(=O)COc4ccccc4C)cc3)nc2s1` it is inactive: -3.74%; for `CCOC(=O)c1cc(-c2ccccc2)n(-c2cccc(C(=O)Nc3cccc(SC)c3)c2)c1C` it is inactive: -5.44%. To `Cc1ccc(-c2nn3c(-c4ccccc4C)nnc3c3ccccc23)cc1` belongs inactive: -15.1%; to `CCC(=O)Oc1ccc2c(c1)CC[C@@H]1[C@@H]2CC[C@@]2(C)[C@H]1C[C@@H](OC(=O)CC)[C@@H]2OC(=O)CC`, inactive: -19.7%; to `COc1ccc(CCC(=O)NCCc2csc(-c3ccc(F)cc3)n2)cc1`, inactive: -27.7%. In the case of `O=C(Cn1ncc2c([nH]c3ccccc32)c1=O)NCCCN1CCN(c2ccc(F)cc2)CC1`, the “activation” value is inactive: -14.3%. The figure for `CCc1ccccc1NC(=O)N1CCOc2ccccc21` is inactive: -20%; for `COc1cc(NC(=O)CC2C(=O)N(c3ccccc3)C(=O)N2Cc2ccc(F)cc2)cc(OC)c1` (configuration not stated) it is inactive: -10.9%; for `COc1ccc(OC)c(NC(=O)CSc2nc(=O)n(CCN(C)C)c3c2CCC3)c1` it is inactive: -17.5%. To `CC1CCc2c(sc(NC(=O)Cc3ccccc3)c2C(=O)Nc2ccc(Cl)cc2)C1` (configuration not stated) belongs inactive: -23%; to `CCc1ccc(-n2c(=O)c3c4c(sc3n(Cc3ccccc3C#N)c2=O)CCCC4)cc1`, inactive: -10.9%; to `CCCn1c2ccccc2c2cnn(CC(=O)Nc3cc(C)c(Cl)cc3OC)c(=O)c21`, inactive: 6.06%. To `CC(=O)Nc1ccc(NC(=O)c2oc3c(c2C)-c2nn(Cc4ccccc4Cl)cc2CC3)cc1` belongs inactive: -16.4%. Regarding `CCCCC(=O)Nc1ccc2nc(SCC(=O)N3CCc4ccccc43)sc2c1`, the “activation” value is inactive: -18.7%. The figure for `CCc1ccc2nc(N(Cc3cccnc3)C(=O)c3ccc(C#N)cc3)sc2c1` is inactive: -19.3%; for `Cc1ccc(N2CCN(C(=O)c3nn(C)c4c3CS(=O)(=O)c3ccccc3-4)CC2)c(C)c1` it is inactive: -18.2%; for `Cc1ccc(Nc2ccc3cc(S(=O)(=O)N4CCC(C)CC4)ccc3n2)c(Cl)c1` it is inactive: -17.3%.

With `CCc1cccc(NC(=O)CCn2c(=O)c3cccn3c3cccnc32)c1`, the “activation” value was inactive: 2.17%. To `CCOc1ccc(-n2cc(-c3ccccc3)c3c(NCCc4ccccc4)ncnc32)cc1` belongs inactive: -4.43%.

Turning to `Cc1cccc(NC(=O)Cn2nc(-c3ccccc3)c3cnc4ccccc4c32)c1`, the “activation” value is inactive: -6.49%. The figure for `CCOC(=O)N1CCc2c(sc3c2c(=O)n(Cc2ccccc2)c(=O)n3CC(=O)Nc2cccc(CC)c2)C1` is inactive: -9.29%.

As for `CCOC(=O)c1ccc(NC(=O)Cn2nc3c4ccccc4n(Cc4cccc(F)c4)cc-3c2=O)cc1`, the “activation” value was inactive: -17.1%. Consider `O=C(CCn1c(=O)c2sccc2n(Cc2ccccc2F)c1=O)NCc1ccc2c(c1)OCO2`, for which the “activation” value was inactive: -13%. The figure for `COC(=O)Cn1c(C2CC(=O)N(c3c(C)cccc3C)C2)nc2ccccc21` (configuration not stated) is inactive: 3.91%; for `Cc1cc(NC(=O)CCc2nc3cccnc3n2-c2ccccc2)ccc1Br` it is inactive: -34.7%. For `O=C(CCNS(=O)(=O)c1ccc2c(c1)CCCC(=O)N2)Nc1cccc(Cl)c1`, the “activation” value is inactive: -21.1%. To `COc1ccc(C(=O)c2c(N)c(-c3nc(-c4ccc5c(c4)OCO5)cs3)c3ccccn23)cc1` belongs inactive: -15%; to `O=C(NCCc1ccccc1)c1ccc(CS(=O)Cc2ccc(Cl)cc2)o1` (configuration not stated), inactive: -10.1%. `Cc1ccccc1NC(=O)Cn1cc(C(=O)c2ccco2)c2ccccc21`: the “activation” value was inactive: -16.1%. Turning to `Cc1ccc(C)c(N2CCN(c3ncnc4c3nc3n4CCCC3)CC2)c1`, the “activation” value was inactive: -23.4%.

Consider `O=C(Nc1ccc(F)cc1F)C1CCN(c2ncccn2)CC1`, for which the “activation” value was inactive: -3.8%. To `O=S(=O)(c1ccc(C2CCCCC2)cc1)N1CCN(c2ccc(Cl)c(Cl)c2)CC1` belongs inactive: -6.78%. On to `COc1ccc(-c2nc(CNC(=O)NC3CCCCC3)c(C)o2)cc1`, for which the “activation” value was inactive: -4.4%.
